In all, about 150,000 compounds went through this assay and about 540 (0.36%) showed an effect of 50% or more. The list shows a part of the results.

As a reminder, the % Inhibition is the change of the read-out against control, counted positive when it falls.

The subject of this assay is Plasmodium falciparum. Description: Primary screen in NF54 nanoGlo assay, in single point, at 2uM, 72h; a lower Z score goes with more inhibition. In kind it is functional, Erythrocyte. To be noted: timepoint 72 hour.
With `O=C(NCCc1cccs1)c1cc(Cc2cccc3ccccc23)no1`, the “% Inhibition” value was 19% and the Z score is -2.46.

Take `O=C(CN1CCN(c2ccccc2F)C1=O)Nc1nccs1`: the “% Inhibition” value is on record as -5% and the Z score came to 0.59.

As to `CCC(=O)N1CCc2ccc(OCc3ccc(C(=O)NCC4CC4)o3)cc2[C@@H]1c1ccc(F)cc1`, the “% Inhibition” value is -9% and the Z score is 1.09.

Take `CCC[C@@]1(C2CCNCC2)NC(=O)N(CCc2ccc(C#N)cc2)C1=O`: the “% Inhibition” value is on record as 13% and the Z score is on record as -1.65.

For the compound `COc1ccc(C2=C(C)C(N3CCN(Cc4ccc5c(c4)OCO5)CC3)=NS2(=O)=O)cc1`, the “% Inhibition” value is recorded as -15% and the Z score is recorded as 2.24.

On to `O=C(c1sccc1Cl)N1CC2(CCC2)[C@@H]1C1CCOCC1`, for which the “% Inhibition” value is -2% and the Z score worked out at 0.42.

In the case of `CCCN(CCC)S(=O)(=O)NCCc1nc2c(s1)COCC2`, the “% Inhibition” value is listed as -16% and the Z score turned out to be 2.44.

On to `COCCC(=O)Nc1ncnn1C(C)(C)C`, for which the “% Inhibition” value is -6% and the Z score stood at 0.67.

Turning to `COc1ncccc1CNC(=O)c1ccnc(OC2CCOCC2)c1`, the “% Inhibition” value is listed as -8% and the Z score came to 1.44.

Consider `O=C1NC(=O)[C@H](CCC(=O)N2CCN(C(=O)c3ccccc3)CC2)N1`, for which the “% Inhibition” value is on record as -21% and the Z score was found to be 4.

On to `Cc1cccc(OC[C@]2(CNC(=O)c3ccc(F)cc3)C[C@@H](O)[C@@H](O)C2)n1`, for which the “% Inhibition” value is reported as -6% and the Z score worked out at 0.77.

For `CCOc1cc(N(CC)Cc2ccccn2)ncn1`, the “% Inhibition” value is recorded as -9% and the Z score is 1.29.

For `CCc1nnsc1C(=O)N1C[C@H](C)OC(C)(C)C1`, the “% Inhibition” value is -3% and the Z score was 0.49.

As to `CN(C)c1c(Cl)cnn(-c2ccccc2)c1=O`, the “% Inhibition” value is on record as -1% and the Z score came out at 0.24.

In the case of `CNS(=O)(=O)c1cc(C(=O)N2CCc3ccc(C)cc32)c(C)o1`, the “% Inhibition” value is on record as -7% and the Z score is 0.7.

With `CCC(=O)Nc1ccc2c(c1)CN(C)C(=O)N2`, the “% Inhibition” value was -3% and the Z score came to 0.26.

As to `O=C(Nc1ccnn1Cc1ccc(Cl)c(F)c1)[C@H]1CCS(=O)(=O)C1`, the “% Inhibition” value is on record as 6% and the Z score is -0.83.

Turning to `NC(=O)[C@@H]1CN(C(=O)CN2CCN(Cc3ccccc3)CC2)CCO1`, the “% Inhibition” value is listed as 8% and the Z score is given as -1.59.

Turning to `Cn1nccc1C(=O)N1CC[C@@](F)(c2cccc(C(F)(F)F)c2)C1`, the “% Inhibition” value is given as 3% and the Z score was -0.58.

For `CCCn1nccc1C(=O)N1CCC[C@H](C(=O)c2cccc(OC(C)C)c2)C1`, the “% Inhibition” value is recorded as -13% and the Z score is on record as 1.82.

Consider `CCc1c[nH]c2ncnc(NC[C@H](C)N(C)C)c12`, for which the “% Inhibition” value is listed as -6% and the Z score was 1.06.

For the compound `O=S(=O)(Nc1ccc(Br)cc1)C1CCCCC1O` (stereo unspecified), the “% Inhibition” value is given as -2% and the Z score was 0.22.

Regarding `Cc1ccnn1CCNC(=O)CCc1nc2cc(Br)cnc2[nH]1`, the “% Inhibition” value stood at 31% and the Z score is recorded as -3.67.

As to `O=c1[nH]c2ccccc2c(O)c1C(c1cccnc1)c1c(O)c2ccccc2[nH]c1=O`, the “% Inhibition” value is reported as -6% and the Z score is recorded as 1.05.

As for `COCc1c(C(=O)NCCN2CCCC2)cnn1-c1ncc2c(n1)-c1ccccc1CCC2`, the “% Inhibition” value is reported as -1% and the Z score was found to be 0.18.

Consider `CCN(Cc1ccccc1)C(=O)c1cc(NS(=O)(=O)c2cccs2)ccc1N1CCNCC1`, for which the “% Inhibition” value was -14% and the Z score was 1.7.

Turning to `COC(=O)c1cccc([C@H]2CC(=O)Nc3c2cnn3CC2CCCCC2)n1`, the “% Inhibition” value is reported as -8% and the Z score was 0.75.

As to `O=C(C1CCN(c2cncnc2N2CCCCC2)CC1)N1CCOCC1`, the “% Inhibition” value is on record as -3% and the Z score is listed as 0.63.

In the case of `CC(C)(C)OC(=O)NC1(C(=O)O)CCC(C(F)F)CC1` (stereo unspecified), the “% Inhibition” value is given as -5% and the Z score was 0.94.

Regarding `O=S1(=O)CC(CCNc2ncnc3sccc23)C1`, the “% Inhibition” value is reported as -5% and the Z score was 0.86.

As to `CCCc1cc(C(=O)N2CCC(c3nc(C(C)C)no3)CC2)[nH]n1`, the “% Inhibition” value is recorded as -9% and the Z score is given as 1.13.

For `CC1(C(=O)N[C@@H]2C[C@@H]3CC(CO)C[C@@H]32)CC2CCC1C2` (stereo partly specified), the “% Inhibition” value was found to be 7% and the Z score is on record as -1.45.

`COc1ccc(CN2C(=O)COC[C@H]2C(=O)N2CCCCC2)c(OC)c1`: the “% Inhibition” value is -2% and the Z score was found to be 0.19.

On to `CC(C)c1nn(C)cc1-c1noc(C2(C(F)(F)F)CCC2)n1`, for which the “% Inhibition” value was -4% and the Z score was determined as 0.73.

Turning to `COc1ncnc(C)c1-c1ccc(C(=O)N2Cc3nc(C)[nH]c(=O)c3C2)cc1`, the “% Inhibition” value is reported as -8% and the Z score was found to be 0.81.

Consider `O=C(NCCc1ccc(F)cc1F)N[C@H]1CCOC2(CCCC2)C1`, for which the “% Inhibition” value turned out to be 6% and the Z score is listed as -0.76.

`C=C(C)COc1ccccc1CN[C@@H](CC)c1nc(C)no1`: the “% Inhibition” value was -10% and the Z score is recorded as 1.37.

`COc1cccc(NC(=O)Cc2nnc(-c3sccc3C)o2)c1`: the “% Inhibition” value is listed as -3% and the Z score stood at 0.28.

Consider `Cc1ccc(Oc2nc(N3CCC(C)CC3)nc3c2CN(C(=O)Cc2ccccc2)CC3)cc1`, for which the “% Inhibition” value is reported as -2% and the Z score is on record as 0.28.

As for `CC(CCC1CC1)NC(=O)[C@H]1CCC(=O)N1` (stereo partly specified), the “% Inhibition” value stood at 0% and the Z score came to 0.03.

With `COc1ccc(N2COC3c4cccc5cccc(c45)C32)cc1` (stereo unspecified), the “% Inhibition” value is given as 5% and the Z score is listed as -0.86.

As to `C#CCOC[C@@H](O)CN(Cc1c(C)nn(-c2ccccc2)c1Oc1cccc(F)c1)CC1CC1`, the “% Inhibition” value was -6% and the Z score stood at 0.94.

Consider `C=CCN(Cc1ccccc1)S(=O)(=O)C(C)(C)C`, for which the “% Inhibition” value was -11% and the Z score stood at 1.83.

Values taken from ChEMBL document CHEMBL4888484, “Replenishing the malaria drug discovery pipeline: Screening and hit evaluation of the MMV Hit Generation Library 1 (HGL1) against asexual blood stage Plasmodium falciparum ,using a nano luciferase reporter read-out” (2022).
